Source: PubChem BioAssay AID504706 (National Center for Advancing Translational Sciences (NCATS), 2011)
About 200 (0.062%) of roughly 320,000 compounds were called active. Inconclusive means that the source gave no clear call. Such entries were picked first, then a sample of the others. The call rests on the fitted dose curve; in most records, active means well fitted activation curve with a large enough effect; inconclusive means small, poorly fitted or top-dose-only effect; inactive means no such curve, though single readings can be large or run the other way. Potencies of inconclusive entries are left out as doubtful fits.

test: qHTS assay for re-activators of p53 using a Luc reporter; conditions: H1299 p53-A138V BP100-luciferase reporter, luminescence, 24 h; series mostly up to 92.2 µM; further: nearly all actives have a fitted effect of over 45% in size
Procedure, shortened: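 H1299 (p53-null), stable ts p53-A138V + BP100-Luc; 1000 cells/well, Opti-MEM/10% FBS; cpd 4 pt, 1:5; 24 h, 37 deg C, 5% CO2; detection reagent 10 min RT; luminescence.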
Potency means the concentration at half of the fitted maximal effect; tags describe the fitted curve by direction and shape.

| Structure (SMILES) | Potency |
| --- | --- |
| COC(=O)Cc1ccc2sc(-c3ccccc3)nc2c1 | inconclusive [activator, partial curve, poor fit] |
| O=C(CN1CCN(Cc2ccc(Cl)cc2)CC1)N/N=C/C=C/c1ccccc1[N+](=O)[O-] | inactive |
| Cc1nn(C)c(C)c1CCC(=O)N1CCCC(N2CCN(c3ccc(F)cc3)CC2)C1 (configuration not stated) | inactive |
| OCCNc1ccc(Cl)cc1 | inconclusive [activator, partial curve, poor fit] |
| CCOc1ccc(NC(=O)c2nn(C)cc2Br)cc1 | inconclusive [activator, partial curve, poor fit] |
| COc1cccc(/C=C2\SC(=S)N(CCCC(=O)N3CCCC3)C2=O)c1 | inconclusive [activator, partial curve, poor fit] |
| CC(OC(=O)Cn1ccccc1=O)C(=O)Nc1cc(Cl)cc(Cl)c1 (configuration not stated) | inactive |
| COCCNC(=O)CSc1nc(-c2ccccc2)cs1 | inconclusive [activator, partial curve, poor fit] |
| O=C(NNC(=O)c1ccccc1F)c1ccc(Cl)c(S(=O)(=O)N2CCOCC2)c1 | inconclusive [activator, full curve, poor fit] |
| Cc1nnc(SCC(=O)NCC2CCCO2)n1-c1ccccc1 (configuration not stated) | inactive |
| Cc1ccc2c(c1C)OC(=O)CC2(C)C | inactive |
| O=C(NC(=S)Nc1ccc(N2CCOCC2)cc1)c1ccc2c(c1)OCCO2 | inconclusive [activator, partial curve, poor fit] |
| COC(=O)COc1ccc(C(=O)OC)cc1 | inactive |
| O=C(O)c1cc(N/N=C/c2c(O)ccc3ccccc23)ccc1Cl | inconclusive [activator, full curve, poor fit] |
| O=C(NCCc1ccccc1)c1cc(-c2ccco2)on1 | inconclusive [activator, full curve, poor fit] |
| Cc1nnc(SCC(=O)Nc2ccc(O)cc2)c2ccccc12 | inconclusive [activator, single point] |
| CCCC(=O)NC(=S)Nc1cccc(Cl)c1N1CCCCC1 | inconclusive [activator, partial curve, poor fit] |
| Oc1ccc(NC(=S)N=Nc2c(O)[nH]c3ccc(Br)cc23)cc1 | inactive |
| COc1ccccc1CNC(=O)c1cnc2ccccn2c1=O | inactive |
| C=C(C)C(=O)Nc1nnc(-c2cccs2)s1 | inconclusive [activator, partial curve] |
| O=C(/C=C/c1c(F)cccc1Cl)Nc1nc2ccccc2[nH]1 | inconclusive [activator, full curve, poor fit] |
| O=C(CCCCCNC(=O)c1ccccc1)N/N=C/c1ccccc1 | inconclusive [activator, full curve, poor fit] |
| CCCCn1nnc(NC(=S)NC(=O)c2cccs2)n1 | inconclusive [activator, single point] |

| Structure (SMILES) | Potency |
| --- | --- |
| Cc1cc(OCC(=O)O/N=C(\N)c2ccccc2)ccc1Br | inconclusive [activator, full curve] |
| COCCCNC(=O)CC1C[C@H](C(=O)N2CCCCC2)[C@@]2(CCc3ccccc3)c3[nH]c4ccc(OC)cc4c3CCN2C1=O (some centres not stated) | inactive |
| CC1CCN(c2nnc(N)s2)CC1 | inconclusive [activator, partial curve, poor fit] |
| CCN(CC)c1ccc(C(=O)NNC(=O)CCNC(=O)c2ccccc2)cc1 | inconclusive [activator, partial curve, poor fit] |
| CC1(C)CC(NC(=O)Cc2ccccc2)CC(C)(C)N1 | inconclusive [activator, single point] |
| CN1C(=O)c2ccccc2N(C)C1c1ccccc1Cl (configuration not stated) | inactive |
| Cn1cnc2cc(NC(=O)c3ccco3)ccc21 | inconclusive [activator, full curve, poor fit] |
| CCOC(=O)c1c(C)[nH]c(N=Nc2cccc(OC)c2)c1C | inconclusive [activator, full curve, poor fit] |
| COc1ccc(NC(=O)CCC(=O)Nc2nnc(CC(C)C)s2)cc1Cl | inactive |
| COc1ccc(Cl)cc1C(=O)NNC(=O)c1cccs1 | inconclusive [activator, full curve, poor fit] |
| O=C(Nc1ccc(Cl)c(Cl)c1)Nc1ccccn1 | inconclusive [activator, full curve, poor fit] |
| C/C(=N\Nc1nc2c(s1)CCCC2)c1ccccc1 | inconclusive [activator, partial curve, poor fit] |
| CN(C(=O)c1cccnc1)c1nnc(-c2cnccn2)s1 | inconclusive [activator, partial curve, poor fit] |
| O=C(NC1CC2CCCC(C1)N2C(=O)Nc1ccc(Cl)c(C(F)(F)F)c1)C1CC1 (configuration not stated) | inactive |
| Cc1ccc(-n2ncc3c2ncn2c(C)nnc32)cc1C | inconclusive [activator, partial curve, poor fit] |
| O=C(NCc1ccco1)c1cc(-c2ccc3c(c2)OCO3)on1 | inconclusive [activator, full curve, poor fit] |
| CC1CCN(c2oc(-c3ccccc3F)nc2C#N)CC1 | inconclusive [activator, partial curve, poor fit] |
| O=C(NC1CCCC1)C(c1ccco1)N(Cc1ccccc1)C(=O)c1csnn1 (configuration not stated) | inconclusive [activator, full curve, poor fit] |
| O=C(NCc1nnnn1-c1ccc(F)c(F)c1)c1ccc2c(c1)OCO2 | inactive |
| Cc1cccc(Nc2nc(N3CCOCC3)nc(N3CCOCC3)n2)c1 | inconclusive [activator, partial curve, poor fit] |
| O=C(NC(C(=O)c1ccccc1)N1CCOCC1)c1cccs1 (configuration not stated) | inconclusive [activator, full curve, poor fit] |
| O=C(NN=C1CCCC1)c1[nH]c2ccc(Br)cc2c1-c1ccccc1 | inactive |
| CC[C@H](C)[C@H](NC(N)=O)C(=O)NCCc1ccc(Cl)cc1 | inconclusive [activator, partial curve, poor fit] |

| Structure (SMILES) | Potency |
| --- | --- |
| O=C(C[n+]1ccccc1)Nc1ccccc1[N+](=O)[O-] | inconclusive [activator, single point] |
| O=C(Nc1ccc(N2CCCC2)c(Cl)c1)c1ccco1 | inconclusive [activator, full curve, poor fit] |
| Cc1cc2oc(=O)cc(CN3CCCCC3)c2cc1C(C)C | inconclusive [activator, single point] |
| CCCc1nnc(NC(=O)c2ccc([N+](=O)[O-])cc2)s1 | inconclusive [activator, single point] |
| CN(C)c1nc(N)nc(CSc2nc3cc(Cl)ccc3o2)n1 | inconclusive [activator, partial curve, poor fit] |
| O=C1CCC(C(=O)OCc2cc(Cl)ccc2OC(F)F)N1 (configuration not stated) | inconclusive [activator, single point] |
| CCc1ccc(NC(=O)CNC(=O)c2nn(-c3ccc(OC)cc3)c(=O)c3ccccc23)cc1 | inactive |
| COc1ccccc1NC(CC(=O)c1ccccc1)C(=O)OCC(=O)c1ccc(Br)cc1 (configuration not stated) | inconclusive [activator, full curve, poor fit] |
| CC(C)Cc1cc(C(=O)Nc2cccnc2)no1 | inconclusive [activator, partial curve, poor fit] |
| CCCC/C(C)=N/NC(=O)NC1CCCCC1 | inconclusive [activator, partial curve, poor fit] |
| CC(=O)c1sc(NC(=O)C=C(C)C)nc1C | inconclusive [activator, partial curve, poor fit] |
| O=C(Cn1cnc2ccccc21)Nc1ccccc1-c1ccccc1 | inconclusive [activator, full curve, poor fit] |
| O=C(NNC(=O)c1ccccc1F)c1ccc2[nH]c(=O)c(=O)[nH]c2c1 | inconclusive [activator, partial curve, poor fit] |
| O=C(Nc1ccc2c(c1)CCC2)Nc1ccc(F)cc1F | inconclusive [activator, partial curve, poor fit] |
| COc1cccc2cc(C(=O)N3CCc4ccccc4C3)c(=O)oc12 | inconclusive [activator, partial curve, poor fit] |
| CC(CN1CCOCC1)OC(=O)c1ccccc1Cl (configuration not stated) | inconclusive [activator, partial curve, poor fit] |
| COc1ccc(Nc2nc(-c3cccs3)cs2)c(OC)c1 | inconclusive [activator, partial curve, poor fit] |
| NC(=O)NC(=O)C(Nc1ccc(N2CCCCC2)cc1)c1ccccc1 (configuration not stated) | inconclusive [activator, full curve, poor fit] |
| Cc1cc(C)c2c(CN3CCC(C)CC3)cc(=O)oc2c1 | inconclusive [activator, full curve, poor fit] |
| CCOc1ccc(N=C2NC(=O)S/C2=C\c2ccc(N(C)C)cc2)cc1 | inconclusive [activator, partial curve, poor fit] |
| COc1ccccc1Nc1nc(C)cs1 | inconclusive [activator, single point] |
